This is one part of the list.
Experiments:
Test in all cases: glycan array binding signal (z-score within array); higher = stronger binding
Settings in all cases: glycan notation: IUPAC condensed, linker removed
Gal(a1-3)GalNAc = biological target: Gal(a1-3)GalNAc
Summary of the method: (§1)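 Glycan array data were curated from 3228 arrays in the Consortium for Functional Glycomics database and kept only where the protein sequence was available. Glycan names were converted to IUPAC-condensed notation, and columns mapping to the same glycan were averaged. The binding signal is a within-array Z-score, averaged across arrays of the same protein sequence at different concentrations or buffers and across linkers. Negative Z-scores can be read as non-binding.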

[1] = biological target: Gal(a1-3)[Gal(a1-4)]Gal(b1-4)GlcNAc
Summary of the method: as §1

[2] = biological target: Gal(a1-4)Gal(b1-3)GlcNAc(b1-2)Man(a1-3)[Gal(a1-4)Gal(b1-3)GlcNAc(b1-2)Man(a1-6)]Man(b1-4)GlcNAc(b1-4)GlcNAc
Summary of the method: as §1

Gal(a1-4)Gal(b1-4)Glc = biological target: Gal(a1-4)Gal(b1-4)Glc
Summary of the method: as §1

Gal(a1-4)Gal(b1-4)GlcNAc = biological target: Gal(a1-4)Gal(b1-4)GlcNAc
Summary of the method: as §1

[3] = biological target: Gal(a1-4)Gal(b1-4)GlcNAc(b1-2)Man(a1-3)[Gal(a1-4)Gal(b1-4)GlcNAc(b1-2)Man(a1-6)]Man(b1-4)GlcNAc(b1-4)GlcNAc
Summary of the method: as §1

[4] = biological target: Gal(a1-4)Gal(b1-4)GlcNAc(b1-3)Gal(b1-4)Glc
Summary of the method: as §1

Gal(a1-4)GlcNAc = biological target: Gal(a1-4)GlcNAc
Summary of the method: as §1

Gal(a1-6)Glc = biological target: Gal(a1-6)Glc
Summary of the method: as §1

Gal(b1-2)Gal = biological target: Gal(b1-2)Gal
Summary of the method: as §1

Gal(b1-3)Gal = biological target: Gal(b1-3)Gal
Summary of the method: as §1

Gal(b1-3)Gal(b1-4)GlcNAc = biological target: Gal(b1-3)Gal(b1-4)GlcNAc
Summary of the method: as §1

[5] = biological target: Gal(b1-3)Gal(b1-4)GlcNAc(b1-2)Man(a1-3)[Gal(b1-3)Gal(b1-4)GlcNAc(b1-2)Man(a1-6)]Man(b1-4)GlcNAc(b1-4)GlcNAc
Summary of the method: as §1

Gal(b1-3)GalNAc = biological target: Gal(b1-3)GalNAc
Summary of the method: as §1

[6] = biological target: Gal(b1-3)GalNAc(a1-3)[Fuc(a1-2)]Gal(b1-4)Glc
Summary of the method: as §1

[7] = biological target: Gal(b1-3)GalNAc(a1-3)[Fuc(a1-2)]Gal(b1-4)GlcNAc
Summary of the method: as §1

[8] = biological target: Gal(b1-3)GalNAc(b1-3)Gal(a1-4)Gal(b1-4)Glc
Summary of the method: as §1

[9] = biological target: Gal(b1-3)GalNAc(b1-4)Gal(b1-4)Glc
Summary of the method: as §1

[10] = biological target: Gal(b1-3)GalNAc(b1-4)[Neu5Ac(a2-3)]Gal(b1-4)Glc
Summary of the method: as §1

Gal(b1-3)GlcNAc = biological target: Gal(b1-3)GlcNAc
Summary of the method: as §1

[11] = biological target: Gal(b1-3)GlcNAc(a1-6)Gal(b1-4)GlcNAc
Summary of the method: as §1

[12] = biological target: Gal(b1-3)GlcNAc(b1-2)Man(a1-3)[Gal(b1-3)GlcNAc(b1-2)Man(a1-6)]Man(b1-4)GlcNAc(b1-4)GlcNAc
Summary of the method: as §1

[13] = biological target: Gal(b1-3)GlcNAc(b1-2)Man(a1-3)[Gal(b1-3)GlcNAc(b1-2)Man(a1-6)]Man(b1-4)GlcNAc(b1-4)[Fuc(a1-6)]GlcNAc
Summary of the method: as §1

[14] = biological target: Gal(b1-3)GlcNAc(b1-3)Gal(b1-3)GlcNAc
Summary of the method: as §1

[15] = biological target: Gal(b1-3)GlcNAc(b1-3)Gal(b1-4)Glc
Summary of the method: as §1

[16] = biological target: Gal(b1-3)GlcNAc(b1-3)Gal(b1-4)GlcNAc
Summary of the method: as §1

[17] = biological target: Gal(b1-3)GlcNAc(b1-3)Gal(b1-4)GlcNAc(b1-6)[Gal(b1-3)GlcNAc(b1-3)]Gal(b1-4)Glc
Summary of the method: as §1

[18] = biological target: Gal(b1-3)GlcNAc(b1-3)Gal(b1-4)[Fuc(a1-3)]GlcNAc(b1-6)[Gal(b1-3)GlcNAc(b1-3)]Gal(b1-4)Glc
Summary of the method: as §1

[19] = biological target: Gal(b1-3)GlcNAc(b1-3)GalNAc
Summary of the method: as §1

[20] = biological target: Gal(b1-3)GlcNAc(b1-6)Gal(b1-4)GlcNAc
Summary of the method: as §1

[21] = biological target: Gal(b1-3)[Fuc(a1-4)]GlcNAc
Summary of the method: as §1

[22] = biological target: Gal(b1-3)[Fuc(a1-4)]GlcNAc(b1-2)Man(a1-3)[Gal(b1-3)[Fuc(a1-4)]GlcNAc(b1-2)Man(a1-6)]Man(b1-4)GlcNAc(b1-4)GlcNAc
Summary of the method: as §1

[23] = biological target: Gal(b1-3)[Fuc(a1-4)]GlcNAc(b1-2)Man(a1-3)[Gal(b1-3)[Fuc(a1-4)]GlcNAc(b1-2)Man(a1-6)]Man(b1-4)GlcNAc(b1-4)[Fuc(a1-6)]GlcNAc
Summary of the method: as §1

[24] = biological target: Gal(b1-3)[Fuc(a1-4)]GlcNAc(b1-3)Gal(b1-3)[Fuc(a1-4)]GlcNAc
Summary of the method: as §1

[25] = biological target: Gal(b1-3)[Fuc(a1-4)]GlcNAc(b1-3)Gal(b1-4)GlcNAc
Summary of the method: as §1

[26] = biological target: Gal(b1-3)[Fuc(a1-4)]GlcNAc(b1-3)Gal(b1-4)[Fuc(a1-3)]GlcNAc
Summary of the method: as §1

[27] = biological target: Gal(b1-3)[GlcNAc(b1-6)]GalNAc
Summary of the method: as §1

B1: Lmo1413 (Listeria monocytogenes), Q8Y783 (protein)
chain: MKHAKKSLFTFIIFMTILSITFNPFSAKAAPLMLNLPAPQVDQLYIGDDYITGKLQQEVPMHYPGNAAYVLFNNKQYNITDYTVENDVNFRLKLPKTLEAGDTLNYFTITGNVLDPVAYPGQESYKLAGPFSPIEKANIQVNYVDETNQTLATSDTLSGKLGETYTTSPKAIDGYQVKETPTNATGTYTTNTETIQINYVYEKTAVEGANVSVEYINEATNESIAPTETLSGKIGTTFQAEVKEIDGYELSQVPSNQSGTYTDQTQSVIFKYKKITTPDEVAKDVTVTYKDTKGNQLADPVILKGDIGSTFETEAKSFKGYKLTKTPSNHSSVFTSDSQEVEYVYSKDDAVITPPVTPVNPDKPIINPVKPVNPATSTVPNKNISKKNTTKTVNQTGKTSTALQLPKTGDSENNLPLIIGVSLLISGVYIFTTRRKRVK
For B1, the “glycan array binding signal (z-score)” value (Gal(a1-3)GalNAc) was -0.056, the “glycan array binding signal (z-score)” value [1] was -0.048 and the “glycan array binding signal (z-score)” value [2] was -0.15. For the same binder, the “glycan array binding signal (z-score)” value (Gal(a1-4)Gal(b1-4)Glc) was -0.213, the “glycan array binding signal (z-score)” value (Gal(a1-4)Gal(b1-4)GlcNAc) was -0.023 and the “glycan array binding signal (z-score)” value [3] was -0.139. The “glycan array binding signal (z-score)” value [4] was 0.081, the “glycan array binding signal (z-score)” value (Gal(a1-4)GlcNAc) was 1.25 and the “glycan array binding signal (z-score)” value (Gal(a1-6)Glc) was -0.157. For the same binder, the “glycan array binding signal (z-score)” value (Gal(b1-2)Gal) was -0.099, the “glycan array binding signal (z-score)” value (Gal(b1-3)Gal) was 0.145 and the “glycan array binding signal (z-score)” value (Gal(b1-3)Gal(b1-4)GlcNAc) was 0.732. For the same binder, the “glycan array binding signal (z-score)” value [5] was -0.25, the “glycan array binding signal (z-score)” value (Gal(b1-3)GalNAc) was 0.132 and the “glycan array binding signal (z-score)” value [6] was -0.046. For the same binder, the “glycan array binding signal (z-score)” value [7] was -0.029, the “glycan array binding signal (z-score)” value [8] was -0.2 and the “glycan array binding signal (z-score)” value [9] was 0.709. The “glycan array binding signal (z-score)” value [10] was -0.142, the “glycan array binding signal (z-score)” value (Gal(b1-3)GlcNAc) was 0.02 and the “glycan array binding signal (z-score)” value [11] was 0.622. For the same binder, the “glycan array binding signal (z-score)” value [12] was -0.218, the “glycan array binding signal (z-score)” value [13] was -0.242 and the “glycan array binding signal (z-score)” value [14] was -0.215. The “glycan array binding signal (z-score)” value [15] was 0.543, the “glycan array binding signal (z-score)” value [16] was -0.088 and the “glycan array binding signal (z-score)” value [17] was -0.197. The “glycan array binding signal (z-score)” value [18] was -0.158, the “glycan array binding signal (z-score)” value [19] was -0.164 and the “glycan array binding signal (z-score)” value [20] was 0.436. For the same binder, the “glycan array binding signal (z-score)” value [21] was 0.021, the “glycan array binding signal (z-score)” value [22] was 1.29 and the “glycan array binding signal (z-score)” value [23] was 0.486. For the same binder, the “glycan array binding signal (z-score)” value [24] was -0.139, the “glycan array binding signal (z-score)” value [25] was -0.133 and the “glycan array binding signal (z-score)” value [26] was 0.001. The “glycan array binding signal (z-score)” value [27] was 0.217.
